The structures appear in SMILES notation. About 14,000 (4.5%) of roughly 310,000 compounds showed an effect of 50% or more. The effect is printed as a negative number. Some of the results follow.
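Also: peak tail current of the secondary pulse compared with the same well before compound.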

For this experiment, the target named is human ether-à-go-go-related gene (hERG) potassium channel (human, UniProt Q12809). The experiment in a line: primary screen, population patch clamp on CHO cells stably expressing hERG.
Chain of human ether-à-go-go-related gene (hERG) potassium channel (Q12809 whole entry, looked up): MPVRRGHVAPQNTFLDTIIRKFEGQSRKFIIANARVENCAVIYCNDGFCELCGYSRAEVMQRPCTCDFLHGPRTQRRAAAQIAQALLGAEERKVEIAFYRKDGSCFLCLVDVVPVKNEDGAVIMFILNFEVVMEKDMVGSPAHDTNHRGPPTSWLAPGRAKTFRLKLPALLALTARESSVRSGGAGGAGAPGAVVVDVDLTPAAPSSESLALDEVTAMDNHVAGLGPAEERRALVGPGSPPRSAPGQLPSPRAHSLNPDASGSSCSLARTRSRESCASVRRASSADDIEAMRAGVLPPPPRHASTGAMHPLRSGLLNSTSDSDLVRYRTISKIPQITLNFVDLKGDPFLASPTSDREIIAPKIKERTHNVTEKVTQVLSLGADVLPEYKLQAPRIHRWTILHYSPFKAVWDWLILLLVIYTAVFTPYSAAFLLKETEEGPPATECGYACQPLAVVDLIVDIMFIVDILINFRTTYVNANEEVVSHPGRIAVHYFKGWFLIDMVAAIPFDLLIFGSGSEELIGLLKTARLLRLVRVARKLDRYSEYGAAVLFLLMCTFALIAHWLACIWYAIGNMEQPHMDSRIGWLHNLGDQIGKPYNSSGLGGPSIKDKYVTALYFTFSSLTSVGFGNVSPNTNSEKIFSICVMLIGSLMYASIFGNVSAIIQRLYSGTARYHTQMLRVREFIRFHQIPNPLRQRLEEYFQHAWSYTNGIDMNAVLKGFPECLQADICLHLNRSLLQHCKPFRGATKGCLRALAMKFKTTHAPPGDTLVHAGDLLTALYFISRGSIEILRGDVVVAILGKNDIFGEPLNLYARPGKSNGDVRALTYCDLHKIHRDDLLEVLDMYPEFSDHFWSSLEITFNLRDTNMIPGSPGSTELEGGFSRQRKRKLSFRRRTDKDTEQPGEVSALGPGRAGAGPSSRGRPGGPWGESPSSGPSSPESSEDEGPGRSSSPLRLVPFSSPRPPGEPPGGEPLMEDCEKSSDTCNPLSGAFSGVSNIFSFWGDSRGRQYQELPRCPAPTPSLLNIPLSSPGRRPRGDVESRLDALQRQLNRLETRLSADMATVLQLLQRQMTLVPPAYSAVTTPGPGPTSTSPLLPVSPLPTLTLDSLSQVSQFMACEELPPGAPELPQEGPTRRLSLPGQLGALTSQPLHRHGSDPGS
In the case of `O=C(COC(=O)c1cc([N+](=O)[O-])ccc1NCc1ccccc1)NC1CCCc2ccccc21` (stereo not drawn), the “hERG current change (%, negative = inhibition) at 10uM” value is 15.6%.

In the case of `O=C(Nc1cccnc1)c1cccnc1Cl`, the “hERG current change (%, negative = inhibition) at 10uM” value came out at 4.09%.

As to `c1ccc(-c2noc(-c3cccnc3)n2)cc1`, the “hERG current change (%, negative = inhibition) at 10uM” value is listed as -0.69%.

Take `CN(C)CCCN=Cc1c(O)n(CCc2ccc(F)cc2)c(=O)[nH]c1=O`: the “hERG current change (%, negative = inhibition) at 10uM” value is listed as 15.2%.

Consider `CCN(CC)S(=O)(=O)c1cccc(-c2nnc(SCc3nnc(-c4cccs4)o3)n2N)c1`, for which the “hERG current change (%, negative = inhibition) at 10uM” value is -44.3%.

With `CCc1ccc(N2C(=O)C3C(C2=O)N2CCCN2C3c2ccccc2)cc1` (stereo not drawn), the “hERG current change (%, negative = inhibition) at 10uM” value came to 18.1%.

Turning to `CCOc1ccccc1NC(=O)COn1nnc2ccc(Cl)cc21`, the “hERG current change (%, negative = inhibition) at 10uM” value is reported as -1.35%.

Regarding `S=C(NCCc1ccccc1)NCc1ccccc1Cl`, the “hERG current change (%, negative = inhibition) at 10uM” value is recorded as -8.85%.

Regarding `CCOc1ccccc1N=CC1=C(O)CC(c2ccccc2)CC1=O` (stereo not drawn), the “hERG current change (%, negative = inhibition) at 10uM” value came to 6.05%.

As to `CN(C)S(=O)(=O)c1cccc(NC(=O)COC(=O)/C=C/c2ccco2)c1`, the “hERG current change (%, negative = inhibition) at 10uM” value is listed as -26.6%.

Consider `COC(=O)Cc1c(C)c2ccc(OC3CCCCC3=O)c(C)c2oc1=O` (stereo not drawn), for which the “hERG current change (%, negative = inhibition) at 10uM” value came to 3.77%.

In the case of `Cc1ccc(C(=O)C[n+]2cccc3cc(C)ccc32)cc1.[Br-]`, the “hERG current change (%, negative = inhibition) at 10uM” value is -31.7%.

As to `CCOc1ccc(N2C(=O)CC(Sc3nc4ccc(OCC)cc4s3)C2=O)cc1` (stereo not drawn), the “hERG current change (%, negative = inhibition) at 10uM” value is listed as 16.9%.

On to `CC(=O)Nc1ccccc1-c1ccc(C)o1`, for which the “hERG current change (%, negative = inhibition) at 10uM” value is given as 6.02%.

For the compound `Cc1ccc(O)c(C(=O)c2cc(C(=O)NCCc3ccccc3)c(=O)n(CCc3ccccc3)c2)c1`, the “hERG current change (%, negative = inhibition) at 10uM” value was -2.01%.

Regarding `Cc1ccc(OCC(=O)NC(=S)Nc2cccc(NC(=O)c3ccc(Cl)cc3Cl)c2)cc1`, the “hERG current change (%, negative = inhibition) at 10uM” value is 20%.

For the compound `CC(OC(=O)c1ccc(Br)c(S(=O)(=O)N2CCOCC2)c1)C(=O)NC1CCCCC1C` (stereo not drawn), the “hERG current change (%, negative = inhibition) at 10uM” value was -49.9%.

Consider `COc1ccccc1/C=N/NC(=O)c1ccc(CN2C(=O)c3cccc4cccc2c34)cc1`, for which the “hERG current change (%, negative = inhibition) at 10uM” value is reported as 2.35%.

Turning to `Cc1ccc2nc(SCC(=O)NC3CCCC3)[nH]c2c1`, the “hERG current change (%, negative = inhibition) at 10uM” value amounted to 6.86%.

In the case of `CCOc1cc(/C=N/NC(=O)CSc2cccc3cccnc23)ccc1O`, the “hERG current change (%, negative = inhibition) at 10uM” value was 9.6%.

Turning to `COc1ccc(CCNC(=O)c2cc3c(=O)n4cccc(C)c4nc3n(CC3CCCO3)c2=N)cc1` (stereo not drawn), the “hERG current change (%, negative = inhibition) at 10uM” value is listed as -75.2%.

Turning to `CC(C)(C)Cc1nnc(NC(=O)c2ccco2)s1`, the “hERG current change (%, negative = inhibition) at 10uM” value is on record as 5.12%.

Regarding `CSc1ccc(S(=O)(=O)Nc2ccc3c4c(cccc24)CC3)cc1`, the “hERG current change (%, negative = inhibition) at 10uM” value is given as 3.32%.

In the case of `CCOC(=O)N1CCC(=NNC(N)=O)CC1`, the “hERG current change (%, negative = inhibition) at 10uM” value came to 19%.
